Results reported in publication PMC7757826.
No constants are given. Whether binding was seen depends on the method and setting. In cells and extracts the contact can be indirect. Some entries that bind do so weakly or less than the wild type.

Tests used:
Conditions in all cases: remark: other sources report otherwise
[1] = target: T1, CD82 (Tspan-27) (human (endogenous in A2780, OVCAR-3, SKOV-3 and A2780cis cells)), P27701; experiment: co-IP; A2780 cells lysed in 1% Triton X-100 buffer; lysates precipitated with antibodies to the studied molecules, western blot
T1 chain: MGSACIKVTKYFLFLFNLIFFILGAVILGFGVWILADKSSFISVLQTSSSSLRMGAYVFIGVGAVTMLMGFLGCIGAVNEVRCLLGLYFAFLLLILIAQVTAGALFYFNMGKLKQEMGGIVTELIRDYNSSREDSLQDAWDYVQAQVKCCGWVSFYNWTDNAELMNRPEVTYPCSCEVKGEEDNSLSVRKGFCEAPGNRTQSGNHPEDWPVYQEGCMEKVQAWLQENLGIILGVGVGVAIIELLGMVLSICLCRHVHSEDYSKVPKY

[2] = target: T1, CD82 (Tspan-27) (human (endogenous in …)); experiment: cross-linking + co-IP; A2780 cells treated first with 2-BP and then with DSP or DTSSP; anti-CD82 or anti-claudin-7 precipitates
[3] = target: T2, claudin-7 (human (endogenous in A2780, OVCAR-3, SKOV-3 and A2780cis cells)), O95471; experiment: as above
T2 chain: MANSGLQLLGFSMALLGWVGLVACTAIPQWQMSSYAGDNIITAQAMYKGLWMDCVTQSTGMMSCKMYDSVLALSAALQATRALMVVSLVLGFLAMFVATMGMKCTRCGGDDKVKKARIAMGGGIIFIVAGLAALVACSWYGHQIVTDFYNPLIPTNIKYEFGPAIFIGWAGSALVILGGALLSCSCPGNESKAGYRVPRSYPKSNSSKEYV

[4] = target: T1, CD82 (Tspan-27) (human (endogenous in …)); experiment: co-IP; SKOV-3 cells lysed in 1% Triton X-100 buffer; lysates precipitated with antibodies to the studied molecules, western blot
[5] = target: T2, claudin-7 (human (endogenous in A2780, …)); experiment: as above
[6] = target: T1, CD82 (Tspan-27) (human (endogenous in …)); experiment: co-IP; OVCAR-3 cells lysed in 1% Triton X-100 buffer; lysates precipitated with antibodies to the studied molecules, western blot
[7] = target: T1, CD82 (Tspan-27) (human (endogenous in …)); experiment: cross-linking + co-IP; A2780 cells treated with the membrane-permeable cross-linker DSP (1 mM, 30 min, 37 °C), lysed in RIPA buffer; anti-CD82 or anti-claudin-7 precipitates
[8] = target: T2, claudin-7 (human (endogenous in A2780, …)); experiment: as above
[9] = target: T2, claudin-7 (human (endogenous in A2780, …)); experiment: cross-linking + co-IP; A2780 cells treated with the membrane-impermeable cross-linker DTSSP (1 mM, 30 min, 37 °C), lysed in RIPA buffer; anti-CD82 or anti-claudin-7 precipitates
[10] = target: T1, CD82 (Tspan-27) (human (endogenous in …)); experiment: cross-linking + co-IP; OVCAR-3 cells treated with DSP or DTSSP (1 mM, 30 min, 37 °C), with or without 2-BP beforehand, lysed in RIPA buffer; anti-CD82 or anti-claudin-7 precipitates
[11] = target: T2, claudin-7 (human (endogenous in A2780, …)); experiment: as above
[12] = target: T1, CD82 (Tspan-27) (human (endogenous in …)); experiment: cross-linking + co-IP; SKOV-3 cells treated with DSP or DTSSP (1 mM, 30 min, 37 °C), claudin-7 precipitates also after 2-BP beforehand, lysed in RIPA buffer; anti-CD82 or anti-claudin-7 precipitates
[13] = target: T2, claudin-7 (human (endogenous in A2780, …)); experiment: as above

Measured: binding

B1: claudin-1, O95832 1-211 (protein)
chain: MANAGLQLLGFILAFLGWIGAIVSTALPQWRIYSYAGDNIVTAQAMYEGLWMSCVSQSTGQIQCKVFDSLLNLSSTLQATRALMVVGILLGVIAIFVATVGMKCMKCLEDDEVQKMRMAVIGGAIFLLAGLAILVATAWYGNRIVQEFYDPMTPVNARYEFGQALFTGWAAASLCLLGGALLCCSCPRKTTSYPTPRPYPKPAPSSGKDYV
binds: [1] | [2] | [3] | [4] | [5] | [6] | [7] | [8] | [9] | [10] | [11] | [12] | [13]
